{"source": "the supplement of paper PMC8728848", "binders": {"B1": {"name": "Gal 3 (Homo sapiens), P17931 (protein)", "chain": "MADNFSLHDALSGSGNPNPQGWPGAWGNQPAGAGGYPGASYPGAYPGQAPPGAYPGQAPPGAYHGAPGAYPGAPAPGVYPGPPSGPGAYPSSGQPSAPGAYPATGPYGAPAGPLIVPYNLPLPGGVVPRMLITILGTVKPNANILDFQRGNDVAFHFNPRFNENNRRVIVCNTKLDNNWAREERQSVFPFESGKPFKIQVLVEPDHFKVAVNDAHLLQYNHRVKKLNEISKLGISGDIDLTSASYTMI"}}, "assay_in_all_cases": "glycan array binding signal (z-score within array); higher = stronger binding", "conditions_in_all_cases": "glycan notation: IUPAC condensed, linker removed; mutation: G182A", "key": {"[1]": {"molecular_target": "Fuc(a1-3)[Gal3S(b1-4)]GlcNAc", "summary_of_the_method": "(§1)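 The binding signal is a Z-score computed within each array. Data were drawn from 3228 arrays in the Consortium for Functional Glycomics database, restricted to those with a known protein sequence. Scores were averaged over arrays of the same protein sequence at different concentrations or buffers, and over linkers, and negative values can be taken as non-binding.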"}, "[2]": {"molecular_target": "Fuc(a1-3)[Gal3S(b1-4)]GlcNAc6S", "summary_of_the_method": "as §1"}, "[3]": {"molecular_target": "Fuc(a1-3)[GalNAc(b1-4)]GlcNAc", "summary_of_the_method": "as §1"}, "Fuc(a1-4)GlcNAc": {"molecular_target": "Fuc(a1-4)GlcNAc", "summary_of_the_method": "as §1"}, "Fuc(b1-3)GlcNAc": {"molecular_target": "Fuc(b1-3)GlcNAc", "summary_of_the_method": "as §1"}, "Gal(a1-2)Gal": {"molecular_target": "Gal(a1-2)Gal", "summary_of_the_method": "as §1"}, "Gal(a1-3)Gal": {"molecular_target": "Gal(a1-3)Gal", "summary_of_the_method": "as §1"}, "Gal(a1-3)Gal(b1-3)GlcNAc": {"molecular_target": "Gal(a1-3)Gal(b1-3)GlcNAc", "summary_of_the_method": "as §1"}, "[4]": {"molecular_target": "Gal(a1-3)Gal(b1-3)GlcNAc(b1-2)Man(a1-3)[Gal(a1-3)Gal(b1-3)GlcNAc(b1-2)Man(a1-6)]Man(b1-4)GlcNAc(b1-4)GlcNAc", "summary_of_the_method": "as §1"}, "[5]": {"molecular_target": "Gal(a1-3)Gal(b1-3)[Fuc(a1-4)]GlcNAc(b1-2)Man(a1-3)[Gal(a1-3)Gal(b1-3)[Fuc(a1-4)]GlcNAc(b1-2)Man(a1-6)]Man(b1-4)GlcNAc(b1-4)GlcNAc", "summary_of_the_method": "as §1"}, "Gal(a1-3)Gal(b1-4)Glc": {"molecular_target": "Gal(a1-3)Gal(b1-4)Glc", "summary_of_the_method": "as §1"}, "Gal(a1-3)Gal(b1-4)GlcNAc": {"molecular_target": "Gal(a1-3)Gal(b1-4)GlcNAc", "summary_of_the_method": "as §1"}, "[6]": {"molecular_target": "Gal(a1-3)Gal(b1-4)GlcNAc(b1-3)GalNAc", "summary_of_the_method": "as §1"}, "[7]": {"molecular_target": "Gal(a1-3)Gal(b1-4)[Fuc(a1-3)]GlcNAc", "summary_of_the_method": "as §1"}, "[8]": {"molecular_target": "Gal(a1-3)Gal(b1-4)[Fuc(a1-3)]GlcNAc(b1-2)Man(a1-3)[Gal(a1-3)Gal(b1-4)[Fuc(a1-3)]GlcNAc(b1-2)Man(a1-6)]Man(b1-4)GlcNAc(b1-4)GlcNAc", "summary_of_the_method": "as §1"}, "Gal(a1-3)GalNAc": {"molecular_target": "Gal(a1-3)GalNAc", "summary_of_the_method": "as §1"}, "[9]": {"molecular_target": "Gal(a1-3)[Gal(a1-4)]Gal(b1-4)GlcNAc", "summary_of_the_method": "as §1"}, "[10]": {"molecular_target": "Gal(a1-4)Gal(b1-3)GlcNAc(b1-2)Man(a1-3)[Gal(a1-4)Gal(b1-3)GlcNAc(b1-2)Man(a1-6)]Man(b1-4)GlcNAc(b1-4)GlcNAc", "summary_of_the_method": "as §1"}, "Gal(a1-4)Gal(b1-4)Glc": {"molecular_target": "Gal(a1-4)Gal(b1-4)Glc", "summary_of_the_method": "as §1"}, "Gal(a1-4)Gal(b1-4)GlcNAc": {"molecular_target": "Gal(a1-4)Gal(b1-4)GlcNAc", "summary_of_the_method": "as §1"}, "[11]": {"molecular_target": "Gal(a1-4)Gal(b1-4)GlcNAc(b1-2)Man(a1-3)[Gal(a1-4)Gal(b1-4)GlcNAc(b1-2)Man(a1-6)]Man(b1-4)GlcNAc(b1-4)GlcNAc", "summary_of_the_method": "as §1"}, "[12]": {"molecular_target": "Gal(a1-4)Gal(b1-4)GlcNAc(b1-3)Gal(b1-4)Glc", "summary_of_the_method": "as §1"}, "Gal(a1-4)GlcNAc": {"molecular_target": "Gal(a1-4)GlcNAc", "summary_of_the_method": "as §1"}, "Gal(a1-6)Glc": {"molecular_target": "Gal(a1-6)Glc", "summary_of_the_method": "as §1"}, "Gal(b1-2)Gal": {"molecular_target": "Gal(b1-2)Gal", "summary_of_the_method": "as §1"}, "Gal(b1-3)Gal": {"molecular_target": "Gal(b1-3)Gal", "summary_of_the_method": "as §1"}, "Gal(b1-3)Gal(b1-4)GlcNAc": {"molecular_target": "Gal(b1-3)Gal(b1-4)GlcNAc", "summary_of_the_method": "as §1"}, "[13]": {"molecular_target": "Gal(b1-3)Gal(b1-4)GlcNAc(b1-2)Man(a1-3)[Gal(b1-3)Gal(b1-4)GlcNAc(b1-2)Man(a1-6)]Man(b1-4)GlcNAc(b1-4)GlcNAc", "summary_of_the_method": "as §1"}, "Gal(b1-3)GalNAc": {"molecular_target": "Gal(b1-3)GalNAc", "summary_of_the_method": "as §1"}, "[14]": {"molecular_target": "Gal(b1-3)GalNAc(a1-3)[Fuc(a1-2)]Gal(b1-4)Glc", "summary_of_the_method": "as §1"}, "[15]": {"molecular_target": "Gal(b1-3)GalNAc(a1-3)[Fuc(a1-2)]Gal(b1-4)GlcNAc", "summary_of_the_method": "as §1"}, "[16]": {"molecular_target": "Gal(b1-3)GalNAc(b1-3)Gal(a1-4)Gal(b1-4)Glc", "summary_of_the_method": "as §1"}, "[17]": {"molecular_target": "Gal(b1-3)GalNAc(b1-4)Gal(b1-4)Glc", "summary_of_the_method": "as §1"}, "[18]": {"molecular_target": "Gal(b1-3)GalNAc(b1-4)[Neu5Ac(a2-3)]Gal(b1-4)Glc", "summary_of_the_method": "as §1"}, "Gal(b1-3)GlcNAc": {"molecular_target": "Gal(b1-3)GlcNAc", "summary_of_the_method": "as §1"}, "[19]": {"molecular_target": "Gal(b1-3)GlcNAc(a1-6)Gal(b1-4)GlcNAc", "summary_of_the_method": "as §1"}, "[20]": {"molecular_target": "Gal(b1-3)GlcNAc(b1-2)Man(a1-3)[Gal(b1-3)GlcNAc(b1-2)Man(a1-6)]Man(b1-4)GlcNAc(b1-4)GlcNAc", "summary_of_the_method": "as §1"}}, "note": "Some of the results follow."}
{"binder": "B1", "values": [{"measurement": "glycan array binding signal (z-score)", "setting": "[1]", "result": -0.185}, {"measurement": "glycan array binding signal (z-score)", "setting": "[2]", "result": -0.145}, {"measurement": "glycan array binding signal (z-score)", "setting": "[3]", "result": -0.19}, {"measurement": "glycan array binding signal (z-score)", "setting": "Fuc(a1-4)GlcNAc", "result": -0.194}, {"measurement": "glycan array binding signal (z-score)", "setting": "Fuc(b1-3)GlcNAc", "result": -0.157}, {"measurement": "glycan array binding signal (z-score)", "setting": "Gal(a1-2)Gal", "result": -0.179}, {"measurement": "glycan array binding signal (z-score)", "setting": "Gal(a1-3)Gal", "result": -0.179}, {"measurement": "glycan array binding signal (z-score)", "setting": "Gal(a1-3)Gal(b1-3)GlcNAc", "result": -0.185}, {"measurement": "glycan array binding signal (z-score)", "setting": "[4]", "result": -0.176}, {"measurement": "glycan array binding signal (z-score)", "setting": "[5]", "result": -0.186}, {"measurement": "glycan array binding signal (z-score)", "setting": "Gal(a1-3)Gal(b1-4)Glc", "result": -0.193}, {"measurement": "glycan array binding signal (z-score)", "setting": "Gal(a1-3)Gal(b1-4)GlcNAc", "result": -0.166}, {"measurement": "glycan array binding signal (z-score)", "setting": "[6]", "result": -0.176}, {"measurement": "glycan array binding signal (z-score)", "setting": "[7]", "result": -0.194}, {"measurement": "glycan array binding signal (z-score)", "setting": "[8]", "result": -0.187}, {"measurement": "glycan array binding signal (z-score)", "setting": "Gal(a1-3)GalNAc", "result": -0.185}, {"measurement": "glycan array binding signal (z-score)", "setting": "[9]", "result": -0.191}, {"measurement": "glycan array binding signal (z-score)", "setting": "[10]", "result": -0.157}, {"measurement": "glycan array binding signal (z-score)", "setting": "Gal(a1-4)Gal(b1-4)Glc", "result": -0.192}, {"measurement": "glycan array binding signal (z-score)", "setting": "Gal(a1-4)Gal(b1-4)GlcNAc", "result": -0.18}, {"measurement": "glycan array binding signal (z-score)", "setting": "[11]", "result": -0.196}, {"measurement": "glycan array binding signal (z-score)", "setting": "[12]", "result": -0.131}, {"measurement": "glycan array binding signal (z-score)", "setting": "Gal(a1-4)GlcNAc", "result": -0.188}, {"measurement": "glycan array binding signal (z-score)", "setting": "Gal(a1-6)Glc", "result": -0.196}, {"measurement": "glycan array binding signal (z-score)", "setting": "Gal(b1-2)Gal", "result": -0.189}, {"measurement": "glycan array binding signal (z-score)", "setting": "Gal(b1-3)Gal", "result": -0.19}, {"measurement": "glycan array binding signal (z-score)", "setting": "Gal(b1-3)Gal(b1-4)GlcNAc", "result": -0.155}, {"measurement": "glycan array binding signal (z-score)", "setting": "[13]", "result": 0.651}, {"measurement": "glycan array binding signal (z-score)", "setting": "Gal(b1-3)GalNAc", "result": -0.188}, {"measurement": "glycan array binding signal (z-score)", "setting": "[14]", "result": -0.196}, {"measurement": "glycan array binding signal (z-score)", "setting": "[15]", "result": 0.011}, {"measurement": "glycan array binding signal (z-score)", "setting": "[16]", "result": -0.191}, {"measurement": "glycan array binding signal (z-score)", "setting": "[17]", "result": -0.189}, {"measurement": "glycan array binding signal (z-score)", "setting": "[18]", "result": -0.189}, {"measurement": "glycan array binding signal (z-score)", "setting": "Gal(b1-3)GlcNAc", "result": -0.191}, {"measurement": "glycan array binding signal (z-score)", "setting": "[19]", "result": -0.189}, {"measurement": "glycan array binding signal (z-score)", "setting": "[20]", "result": -0.173}]}
